The supplement of paper PMC9446081
The whole screen tested about 39,000 compounds, of which about 220 (0.56%) showed activity. The list shows a part of the results.

system: Escherichia coli K-12 BW25113; assay: relative growth (OD600 normalised to plate interquartile mean) (fraction); higher = less growth inhibition, active = 0.2 or less; conditions: 50 µM; LB; incubation time: overnight (16-24 h)
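Further: static incubation at 37 °C against the wild-type strain, values averaged over two biological replicates.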

Question: CO[C@H]1CN(C)C(=O)c2cc(NC(=O)C3CC3)ccc2OC[C@H](C)N(C(=O)Cc2ccccn2)C[C@@H]1C was tested. Which relative growth did it give?
Answer: Its relative growth is inactive: 0.977.

Question: Which relative growth does the source give for C[C@@H]1CN([C@H](C)CO)C(=O)CCCn2cc(nn2)CO[C@H]1CN(C)C(=O)Nc1cccc(C(F)(F)F)c1 here?
Answer: The relative growth was inactive: 0.985.

Question: With C[C@@H]1CN([C@H](C)CO)C(=O)c2cc(NS(=O)(=O)c3ccccc3)ccc2O[C@@H](C)CCCCO[C@H]1CN(C)Cc1ccccc1 as the molecule, how does the relative growth read?
Answer: The relative growth was inactive: 1.01.

Question: C[C@@H]1CCCCO[C@H](CN(C)C(=O)Nc2ccc(C(F)(F)F)cc2)[C@H](C)CN([C@H](C)CO)C(=O)c2cc(NC(=O)CCC(F)(F)F)ccc2O1 was tested. Which relative growth did it give?
Answer: The relative growth was inactive: 0.987.

Question: For C[C@@H]1CN([C@@H](C)CO)S(=O)(=O)c2ccc(-c3ccc(C#N)cc3)cc2O[C@@H]1CN(C)C(=O)CN(C)C, which relative growth is on record?
Answer: The relative growth was inactive: 1.01.

Question: Which relative growth does the source give for CCOC(=O)/C=C(C)/C=C/C=C(C)/C=C/c1c(C)cc(OC)c(C)c1C here?
Answer: The relative growth was inactive: 1.02.

Question: How did the relative growth turn out when O=S(=O)(c1ccccc1)N1CCN(CCO)CC1 was run?
Answer: The relative growth was inactive: 1.

Question: For O=C(C[C@@H]1C=C[C@H](NS(=O)(=O)c2ccccc2)[C@H](CO)O1)NCc1ccncn1, which relative growth is on record?
Answer: Its relative growth is inactive: 0.998.

Question: COc1ccc(S(=O)(=O)Nc2cccc3c2O[C@@H](CN(C)Cc2ccc(Cl)c(Cl)c2)[C@@H](C)CN([C@H](C)CO)C3=O)cc1 was tested. Which relative growth did it give?
Answer: Its relative growth is inactive: 1.01.

Question: CO[C@H](CN(C)S(=O)(=O)c1cccc(Cl)c1)[C@@H](C)CN([C@H](C)CO)S(=O)(=O)c1cccc(Cl)c1 was tested. Which relative growth did it give?
Answer: Its relative growth is inactive: 1.04.

Question: CC(C)NC(=O)Nc1ccc2c(c1)C(=O)N([C@@H](C)CO)C[C@@H](C)[C@@H](CN(C)Cc1ccc(Cl)c(Cl)c1)OCCCC[C@@H](C)O2 was tested. Which relative growth did it give?
Answer: Its relative growth is inactive: 0.993.

Question: With O=C1CSC(=Nc2nccs2)N1 as the molecule, how does the relative growth read?
Answer: The relative growth was inactive: 0.916.

Question: Which relative growth does the source give for C[C@@H]1CN([C@@H](C)CO)C(=O)c2cc(NS(C)(=O)=O)ccc2O[C@@H](C)CCCCO[C@H]1CN(C)S(=O)(=O)c1cn(C)cn1 here?
Answer: The relative growth was inactive: 0.99.

Question: C=CC1=C(C)C(=Cc2[nH]c(Cc3[nH]c(C=C4NC(=O)C(C)=C4C=C)c(C)c3CCC(=O)O)c(CCC(=O)O)c2C)NC1=O was tested. Which relative growth did it give?
Answer: The relative growth was inactive: 1.09.

Question: How did the relative growth turn out when COc1ccc(NC(=O)N(C)C[C@@H]2OCCCC[C@@H](C)Oc3ccc(NC(=O)c4ccccc4)cc3C(=O)N([C@@H](C)CO)C[C@@H]2C)cc1 was run?
Answer: The relative growth was inactive: 1.02.

Question: Which relative growth does the source give for C[C@H](CO)N1C[C@H](C)[C@@H](CN(C)Cc2ccc(Oc3ccccc3)cc2)Oc2ccc(NC(=O)Cc3cn(C)c4ccccc34)cc2C1=O here?
Answer: Its relative growth is inactive: 1.02.

Question: How did the relative growth turn out when C[C@H](CO)N1C[C@H](C)[C@H](CN(C)Cc2ccccc2)Oc2ccc(NC(=O)CCCN(C)C)cc2C1=O was run?
Answer: Its relative growth is inactive: 1.01.

Question: With CCCNC(=O)N1C[C@H](O)COC[C@H]2O[C@H](CC(=O)NCCCN3CCOCC3)CC[C@@H]21 as the molecule, how does the relative growth read?
Answer: Its relative growth is inactive: 0.998.

Question: Which relative growth does the source give for C[C@H]1CN([C@@H](C)CO)C(=O)Cc2cc(NC(=O)Nc3ccccc3)ccc2O[C@@H]1CN(C)Cc1ccc(Oc2ccccc2)cc1 here?
Answer: Its relative growth is inactive: 1.03.

Question: How did the relative growth turn out when COc1ccc(NC(=O)N2CCCCN3[C@H](CN(C)C(C)=O)[C@H](c4ccc(C#Cc5ccccc5)cc4)[C@@H]3C2)cc1 was run?
Answer: Its relative growth is inactive: 0.994.

Question: COc1ccc(NC(=O)N(C)C[C@H]2OCCCC[C@@H](C)Oc3ccc(NS(=O)(=O)c4ccc(OC)cc4)cc3C(=O)N([C@H](C)CO)C[C@@H]2C)cc1 was tested. Which relative growth did it give?
Answer: The relative growth was inactive: 1.01.

Question: Which relative growth does the source give for CC(C)NC(=O)N(C)C[C@@H]1Oc2cc(C#Cc3cccc(F)c3)ccc2S(=O)(=O)N([C@H](C)CO)C[C@@H]1C here?
Answer: The relative growth was inactive: 1.

Question: For CNC(=O)C[C@@H]1CC[C@@H]2[C@H](COC[C@H](O)CN2C(=O)Nc2cccc(OC)c2)O1, which relative growth is on record?
Answer: Its relative growth is inactive: 0.999.

Question: Which relative growth does the source give for c1ccc2c(-c3cn[nH]c3)ccnc2c1 here?
Answer: The relative growth was inactive: 0.843.

Question: Which relative growth does the source give for Cc1noc(C)c1NC(=O)Nc1cccc2c1O[C@@H](CN(C)Cc1ccc(Oc3ccccc3)cc1)[C@H](C)CN([C@@H](C)CO)C2=O here?
Answer: Its relative growth is inactive: 0.991.

Question: O=C1OCCN1N=Cc1ccc([N+](=O)[O-])o1 was tested. Which relative growth did it give?
Answer: Its relative growth is active: 0.0457.

Question: Which relative growth does the source give for CO[C@@H](C(=O)N(C)C[C@H]1OCc2ccccc2-c2c(n(C)c3ccccc23)C(=O)N([C@@H](C)CO)C[C@@H]1C)c1ccccc1 here?
Answer: The relative growth was inactive: 1.01.

Question: CN(C)S(=O)(=O)N1Cc2nnn(C)c2[C@H](COCC2CC2)C1 was tested. Which relative growth did it give?
Answer: The relative growth was inactive: 0.963.

Question: How did the relative growth turn out when O=C(CCc1cn(-c2ccc(C[C@H]3C(=O)O[C@@H](Cc4ccccc4)[C@H]4C=C(/C=C/C5CC5)CN43)cc2)nn1)NO was run?
Answer: Its relative growth is inactive: 0.995.

Question: With C[C@H](CO)N1C[C@H](C)[C@@H](CN(C)CC2CCCCC2)Oc2c(NC(=O)Cc3cn(C)c4ccccc34)cccc2C1=O as the molecule, how does the relative growth read?
Answer: Its relative growth is inactive: 0.964.

Question: With COc1ccc(CCNC(=O)[C@@]2(Sc3ccc(C)cc3)CC(=O)N(Cc3ccccc3C(F)(F)F)[C@@H]2c2ccc(CO)cc2I)cc1 as the molecule, how does the relative growth read?
Answer: Its relative growth is inactive: 1.

Question: How did the relative growth turn out when C[C@@H]1CN([C@@H](C)CO)C(=O)Cc2cc(NC(=O)c3ccncc3)ccc2O[C@H]1CN(C)S(=O)(=O)c1cn(C)cn1 was run?
Answer: The relative growth was inactive: 1.01.

Question: How did the relative growth turn out when CC[C@@H]1COCCC(=O)N1 was run?
Answer: Its relative growth is inactive: 1.

Question: With O=C(Nc1cc(Cl)cc(Cl)c1O)c1c(O)c(Cl)cc(Cl)c1Cl as the molecule, how does the relative growth read?
Answer: The relative growth was inactive: 0.565.

Question: COc1ccc(CN(C)C[C@H]2Oc3c(NC(=O)Nc4cccc5ccccc45)cccc3C(=O)N([C@@H](C)CO)C[C@H]2C)cc1 was tested. Which relative growth did it give?
Answer: Its relative growth is inactive: 1.01.

Question: How did the relative growth turn out when C[C@@H]1CN([C@H](C)CO)C(=O)CCCn2nncc2CO[C@H]1CN(C)S(=O)(=O)c1ccc(-n2cccn2)cc1 was run?
Answer: The relative growth was inactive: 0.999.

Question: How did the relative growth turn out when COc1ccc(S(=O)(=O)N(C)C[C@@H]2Oc3ncc(-c4cccc(OC)c4)cc3C(=O)N([C@H](C)CO)C[C@@H]2C)cc1 was run?
Answer: The relative growth was inactive: 1.

Question: Which relative growth does the source give for Cc1ccc(-c2ccc3c(c2)O[C@@H](CN(C)C(=O)Nc2ccc(C(F)(F)F)cc2)[C@H](C)CN([C@@H](C)CO)S3(=O)=O)cc1 here?
Answer: The relative growth was inactive: 0.735.

Question: With C[C@H](CO)N1C[C@H](C)[C@@H](CN(C)C(=O)Nc2cccc3ccccc23)Oc2c(NC(=O)Nc3ccc4c(c3)OCO4)cccc2C1=O as the molecule, how does the relative growth read?
Answer: The relative growth was inactive: 1.01.

Question: With C[C@H](CO)N1C[C@H](C)[C@@H](CN(C)Cc2ccc(C(F)(F)F)cc2)OCCCC[C@H](C)Oc2ccc(NC(=O)Nc3ccc(F)cc3)cc2C1=O as the molecule, how does the relative growth read?
Answer: The relative growth was inactive: 0.973.
